# Measured values taken from the supplement of paper PMC8728848.
# The other results are listed elsewhere or left out.
# B1: LSL-150 (Laetiporus sulphureus), Q7Z8V1 (protein)
# chain: MTDIYIPPEGLYFRLLGFASRQVIFARNSPSPDVGLSPVNDQATDQYFSLIYGTGEHAGLYAIKSKATGKVLFSRRPAEPYVGQIDGDGRYPDNWFKIEPGKTYLSKYFRLVQPSTGTALVSRTHLQPYFWNHPQTEVFDDQYFTFLFEDHHHHHH
# How the values were obtained:
# Test in all cases: glycan array binding signal (z-score within array); higher = stronger binding
# Settings in all cases: glycan notation: IUPAC condensed, linker removed
# [1] = biological target: Neu5Ac(a2-3)Gal(b1-4)GlcNAc(b1-2)[Neu5Ac(a2-3)Gal(b1-4)GlcNAc(b1-4)]Man(a1-3)[GlcNAc(b1-4)][Neu5Ac(a2-3)Gal(b1-4)GlcNAc(b1-2)[Neu5Ac(a2-3)Gal(b1-4)GlcNAc(b1-6)]Man(a1-6)]Man(b1-4)GlcNAc(b1-4)GlcNAc
# How it was run: (§1)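 The binding signal is a Z-score computed within each array. Data were drawn from 3228 arrays in the Consortium for Functional Glycomics database, restricted to those with a known protein sequence. Scores were averaged over arrays of the same protein sequence at different concentrations or buffers, and over linkers, and negative values can be taken as non-binding.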
# [2] = biological target: Neu5Ac(a2-3)Gal(b1-4)GlcNAc(b1-2)[Neu5Ac(a2-3)Gal(b1-4)GlcNAc(b1-4)]Man(a1-3)[GlcNAc(b1-4)][Neu5Ac(a2-3)Gal(b1-4)GlcNAc(b1-4)Man(a1-6)]Man(b1-4)GlcNAc(b1-4)GlcNAc
# How it was run: as §1
# [3] = biological target: Neu5Ac(a2-3)Gal(b1-4)GlcNAc(b1-2)[Neu5Ac(a2-3)Gal(b1-4)GlcNAc(b1-6)]Man(a1-6)[Neu5Ac(a2-3)Gal(b1-4)GlcNAc(b1-2)Man(a1-3)]Man(b1-4)GlcNAc(b1-4)GlcNAc
# How it was run: as §1
# [4] = biological target: Neu5Ac(a2-3)Gal(b1-4)GlcNAc(b1-2)[Neu5Ac(a2-3)Gal(b1-4)GlcNAc(b1-6)]Man(a1-6)[Neu5Ac(a2-3)Gal(b1-4)GlcNAc(b1-2)Man(a1-3)][GlcNAc(b1-4)]Man(b1-4)GlcNAc(b1-4)GlcNAc
# How it was run: as §1
# [5] = biological target: Neu5Ac(a2-3)Gal(b1-4)GlcNAc(b1-3)Gal
# How it was run: as §1
# [6] = biological target: Neu5Ac(a2-3)Gal(b1-4)GlcNAc(b1-3)Gal(b1-3)GlcNAc
# How it was run: as §1
# [7] = biological target: Neu5Ac(a2-3)Gal(b1-4)GlcNAc(b1-3)Gal(b1-4)GlcNAc
# How it was run: as §1
# [8] = biological target: Neu5Ac(a2-3)Gal(b1-4)GlcNAc(b1-3)Gal(b1-4)GlcNAc(b1-2)Man(a1-3)[Neu5Ac(a2-3)Gal(b1-4)GlcNAc(b1-3)Gal(b1-4)GlcNAc(b1-2)Man(a1-6)]Man(b1-4)GlcNAc(b1-4)GlcNAc
# How it was run: as §1
# [9] = biological target: Neu5Ac(a2-3)Gal(b1-4)GlcNAc(b1-3)Gal(b1-4)GlcNAc(b1-3)Gal(b1-4)GlcNAc
# How it was run: as §1
# [10] = biological target: Neu5Ac(a2-3)Gal(b1-4)GlcNAc(b1-3)Gal(b1-4)GlcNAc(b1-3)Gal(b1-4)GlcNAc(b1-2)Man(a1-3)[Neu5Ac(a2-3)Gal(b1-4)GlcNAc(b1-3)Gal(b1-4)GlcNAc(b1-3)Gal(b1-4)GlcNAc(b1-2)Man(a1-6)]GalNAc
# How it was run: as §1
# [11] = biological target: Neu5Ac(a2-3)Gal(b1-4)GlcNAc(b1-3)Gal(b1-4)GlcNAc(b1-3)GalNAc
# How it was run: as §1
# [12] = biological target: Neu5Ac(a2-3)Gal(b1-4)GlcNAc(b1-3)Gal(b1-4)GlcNAc(b1-3)[Neu5Ac(a2-3)Gal(b1-4)GlcNAc(b1-3)Gal(b1-4)GlcNAc(b1-6)]GalNAc
# How it was run: as §1
# [13] = biological target: Neu5Ac(a2-3)Gal(b1-4)GlcNAc(b1-3)Gal(b1-4)GlcNAc(b1-6)[Gal(b1-3)]GalNAc
# How it was run: as §1
# [14] = biological target: Neu5Ac(a2-3)Gal(b1-4)GlcNAc(b1-3)Gal(b1-4)[Fuc(a1-3)]GlcNAc
# How it was run: as §1
# [15] = biological target: Neu5Ac(a2-3)Gal(b1-4)GlcNAc(b1-3)GalNAc
# How it was run: as §1
# [16] = biological target: Neu5Ac(a2-3)Gal(b1-4)GlcNAc(b1-3)[Neu5Ac(a2-3)Gal(b1-4)GlcNAc(b1-6)]GalNAc
# How it was run: as §1
# [17] = biological target: Neu5Ac(a2-3)Gal(b1-4)GlcNAc(b1-6)GalNAc
# How it was run: as §1
# [18] = biological target: Neu5Ac(a2-3)Gal(b1-4)GlcNAc(b1-6)[Gal(b1-3)]GalNAc
# How it was run: as §1
# [19] = biological target: Neu5Ac(a2-3)Gal(b1-4)GlcNAc(b1-6)[Neu5Ac(a2-3)Gal(b1-3)]GalNAc
# How it was run: as §1
# [20] = biological target: Neu5Ac(a2-3)Gal(b1-4)GlcNAc6S
# How it was run: as §1
# [21] = biological target: Neu5Ac(a2-3)Gal(b1-4)[Fuc(a1-3)]GlcNAc
# How it was run: as §1
# [22] = biological target: Neu5Ac(a2-3)Gal(b1-4)[Fuc(a1-3)]GlcNAc(b1-2)Man
# How it was run: as §1
# [23] = biological target: Neu5Ac(a2-3)Gal(b1-4)[Fuc(a1-3)]GlcNAc(b1-3)Gal
# How it was run: as §1
# [24] = biological target: Neu5Ac(a2-3)Gal(b1-4)[Fuc(a1-3)]GlcNAc(b1-3)Gal(b1-4)GlcNAc
# How it was run: as §1
# [25] = biological target: Neu5Ac(a2-3)Gal(b1-4)[Fuc(a1-3)]GlcNAc(b1-3)Gal(b1-4)[Fuc(a1-3)]GlcNAc(b1-3)Gal(b1-4)[Fuc(a1-3)]GlcNAc
# How it was run: as §1
# [26] = biological target: Neu5Ac(a2-3)Gal(b1-4)[Fuc(a1-3)]GlcNAc(b1-3)GalNAc
# How it was run: as §1
# [27] = biological target: Neu5Ac(a2-3)Gal(b1-4)[Fuc(a1-3)]GlcNAc(b1-6)[Gal(b1-3)]GalNAc
# How it was run: as §1
# [28] = biological target: Neu5Ac(a2-3)Gal(b1-4)[Fuc(a1-3)]GlcNAc(b1-6)[Neu5Ac(a2-3)Gal(b1-3)]GalNAc
# How it was run: as §1
# [29] = biological target: Neu5Ac(a2-3)Gal(b1-4)[Fuc(a1-3)]GlcNAc6S
# How it was run: as §1
# [30] = biological target: Neu5Ac(a2-3)Gal6S(b1-4)GlcNAc
# How it was run: as §1
# [31] = biological target: Neu5Ac(a2-3)Gal6S(b1-4)[Fuc(a1-3)]GlcNAc
# How it was run: as §1
# Neu5Ac(a2-3)GalNAc = biological target: Neu5Ac(a2-3)GalNAc
# How it was run: as §1
# [32] = biological target: Neu5Ac(a2-3)GalNAc(b1-4)GlcNAc
# How it was run: as §1
# [33] = biological target: Neu5Ac(a2-3)[GalNAc(b1-4)]Gal(b1-4)Glc
# How it was run: as §1
# [34] = biological target: Neu5Ac(a2-3)[GalNAc(b1-4)]Gal(b1-4)GlcNAc
# How it was run: as §1
# [35] = biological target: Neu5Ac(a2-3)[GalNAc(b1-4)]Gal(b1-4)GlcNAc(b1-3)GalNAc
# How it was run: as §1
# [36] = biological target: Neu5Ac(a2-3)[Neu5Ac(a2-6)]GalNAc
# How it was run: as §1
# Neu5Ac(a2-6)Gal = biological target: Neu5Ac(a2-6)Gal
# How it was run: as §1
# [37] = biological target: Neu5Ac(a2-6)Gal(b1-3)GlcNAc(b1-3)[Gal(b1-4)GlcNAc(b1-6)]Gal(b1-4)Glc
# How it was run: as §1
# Neu5Ac(a2-6)Gal(b1-4)Glc = biological target: Neu5Ac(a2-6)Gal(b1-4)Glc
# How it was run: as §1
# [38] = biological target: Neu5Ac(a2-6)Gal(b1-4)GlcNAc
# How it was run: as §1
# [39] = biological target: Neu5Ac(a2-6)Gal(b1-4)GlcNAc(b1-2)Man
# How it was run: as §1
# [40] = biological target: Neu5Ac(a2-6)Gal(b1-4)GlcNAc(b1-2)Man(a1-3)Man(b1-4)GlcNAc(b1-4)GlcNAc
# How it was run: as §1
# [41] = biological target: Neu5Ac(a2-6)Gal(b1-4)GlcNAc(b1-2)Man(a1-3)[Gal(b1-4)GlcNAc(b1-2)Man(a1-6)]Man(b1-4)GlcNAc(b1-4)GlcNAc
# How it was run: as §1
# [42] = biological target: Neu5Ac(a2-6)Gal(b1-4)GlcNAc(b1-2)Man(a1-3)[GlcNAc(b1-2)Man(a1-6)]Man(b1-4)GlcNAc(b1-4)GlcNAc
# How it was run: as §1
binder,measurement,setting,value
B1,glycan array binding signal (z-score),[1],-0.202
same,glycan array binding signal (z-score),[2],-0.209
same,glycan array binding signal (z-score),[3],-0.203
same,glycan array binding signal (z-score),[4],-0.208
same,glycan array binding signal (z-score),[5],-0.211
same,glycan array binding signal (z-score),[6],-0.214
same,glycan array binding signal (z-score),[7],-0.169
same,glycan array binding signal (z-score),[8],-0.077
same,glycan array binding signal (z-score),[9],1.07
same,glycan array binding signal (z-score),[10],-0.131
same,glycan array binding signal (z-score),[11],-0.176
same,glycan array binding signal (z-score),[12],-0.103
same,glycan array binding signal (z-score),[13],-0.203
same,glycan array binding signal (z-score),[14],-0.209
same,glycan array binding signal (z-score),[15],-0.209
same,glycan array binding signal (z-score),[16],-0.208
same,glycan array binding signal (z-score),[17],-0.21
same,glycan array binding signal (z-score),[18],-0.21
same,glycan array binding signal (z-score),[19],-0.206
same,glycan array binding signal (z-score),[20],-0.206
same,glycan array binding signal (z-score),[21],-0.208
same,glycan array binding signal (z-score),[22],-0.211
same,glycan array binding signal (z-score),[23],-0.211
same,glycan array binding signal (z-score),[24],-0.2
same,glycan array binding signal (z-score),[25],-0.203
same,glycan array binding signal (z-score),[26],-0.209
same,glycan array binding signal (z-score),[27],-0.203
same,glycan array binding signal (z-score),[28],-0.203
same,glycan array binding signal (z-score),[29],-0.201
same,glycan array binding signal (z-score),[30],-0.206
same,glycan array binding signal (z-score),[31],-0.213
same,glycan array binding signal (z-score),Neu5Ac(a2-3)GalNAc,-0.212
same,glycan array binding signal (z-score),[32],-0.213
same,glycan array binding signal (z-score),[33],-0.21
same,glycan array binding signal (z-score),[34],-0.209
same,glycan array binding signal (z-score),[35],-0.203
same,glycan array binding signal (z-score),[36],-0.208
same,glycan array binding signal (z-score),Neu5Ac(a2-6)Gal,-0.2
same,glycan array binding signal (z-score),[37],-0.199
same,glycan array binding signal (z-score),Neu5Ac(a2-6)Gal(b1-4)Glc,-0.205
same,glycan array binding signal (z-score),[38],-0.205
same,glycan array binding signal (z-score),[39],-0.211
same,glycan array binding signal (z-score),[40],-0.203
same,glycan array binding signal (z-score),[41],-0.202
same,glycan array binding signal (z-score),[42],-0.214
